The other results are listed elsewhere or left out. Single values are uncertain, as repeats are few or missing.
Key:
Experiment in all cases: cell count relative to DMSO control; melanoma cells; higher = more viable cells
Conditions in all cases: library dose: standard library concentration; 72 h
G361 = system: G361
IPC-298 = system: IPC-298
IST-MEL1 = system: IST-MEL1
LB2518-MEL = system: LB2518-MEL
LOXIMVI = system: LOXIMVI
MEL-HO = system: MEL-HO
MZ2-MEL = system: MZ2-MEL
MeWo = system: MeWo
RPMI7951 = system: RPMI7951
RVH-421 = system: RVH-421
SkMel28 = system: SkMel28
SkMel2 = system: SkMel2
SkMel30 = system: SkMel30
SkMel5 = system: SkMel5
UACC257 = system: UACC257
UACC62 = system: UACC62
WM115 = system: WM115
WM1716 = system: WM1716
WM1745 = system: WM1745
WM3526 = system: WM3526
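Further: cells treated in 1,536-well plates, then fixed and DAPI-stained, with nuclei counted from automated high-throughput microscope images.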

| Structure (SMILES) | cell count (G361) [%] | cell count (IPC-298) [%] | cell count (IST-MEL1) [%] | cell count (LB2518-MEL) [%] | cell count (LOXIMVI) [%] | cell count (MEL-HO) [%] | cell count (MZ2-MEL) [%] | cell count (MeWo) [%] | cell count (RPMI7951) [%] | cell count (RVH-421) [%] | cell count (SkMel28) [%] | cell count (SkMel2) [%] | cell count (SkMel30) [%] | cell count (SkMel5) [%] | cell count (UACC257) [%] | cell count (UACC62) [%] | cell count (WM115) [%] | cell count (WM1716) [%] | cell count (WM1745) [%] | cell count (WM3526) [%] |
| --- | --- | --- | --- | --- | --- | --- | --- | --- | --- | --- | --- | --- | --- | --- | --- | --- | --- | --- | --- | --- |
| Cn1nnc2c(C(N)=O)ncn2c1=O [temozolomide] + c1cc(-c2cnn3cc(-c4ccc(OCCN5CCCCC5)cc4)cnc23)ccn1 [Dorsomorphin] (first compound 10 µM, partner dose 2 µM) | 77 | 67.3 | 87.2 | 77 | 118 | 101 | 56.2 | 74.2 | 87 | 111 | 39.9 | 93.2 | 58 | 51.5 | 76.1 | 39.5 | 76.1 | 53.7 | 67.2 | 90.4 |
| O=C(Nc1cc(C(F)(F)F)cc(C(F)(F)F)c1)c1cc(Cl)ccc1O + O=C(O)[C@@H]1[O][Sb](=[O])([O][Sb]2(=[O])[O][C@H]([C@H](O)CO)[C@H](O)[C@H](C(=O)O)[O]2)[O][C@H]([C@H](O)CO)[C@@H]1O [stibogluconate] (first compound 0.08 µM, partner dose 10 µM) | 85.1 | 77.4 | 96.8 | 91.8 | 90.3 | 88.2 | 90.1 | 98.7 | 170 | 116 | 73.8 | 104 | 116 | 111 | 101 | 84.3 | 88.6 | 112 | 83.9 | 115 |
| O=C(Nc1ccccc1)c1cc([N+](=O)[O-])ccc1Cl + COC(=O)c1sccc1S(=O)(=O)Nc1ccc(Nc2ccccc2)cc1OC [GSK0660] (first compound 10 µM, partner dose 5 µM) | 79.1 | 97.6 | 97.5 | 90.1 | 87 | 77.4 | 85.2 | 82.6 | 93.3 | 74 | 69.9 | 87.4 | 91.3 | 62.7 | 81.7 | 69.1 | 80.4 | 95.4 | 73.7 | 80.5 |
| O=C(Nc1ccccc1)c1cc([N+](=O)[O-])ccc1Cl + COc1cc(N2CCC(N3CCN(C)CC3)CC2)ccc1Nc1ncc(Cl)c(Nc2ccccc2S(=O)(=O)C(C)C)n1 [NVP-TAE684] (first compound 10 µM, partner dose 0.4 µM) | 59.5 | 84.2 | 92.7 | 68.2 | 89.4 | 73.1 | 16.2 | 69.8 | 58 | 83.5 | 49.9 | 65.3 | 84.4 | 63.1 | 75.7 | 62.6 | 62.1 | 83.4 | 57.8 | 73.7 |
| O=C(Nc1ccccc1)c1cc([N+](=O)[O-])ccc1Cl + COc1ccc2c(c1)CCC1C2CCC2(C)C(NCCCCCCN3C(=O)C=CC3=O)CCC12 [U73122] (first compound 10 µM, partner dose 2 µM) | 72.7 | 99.8 | 95.6 | 88.3 | 60.5 | 82.3 | 81.3 | 60.5 | 44.8 | 47.9 | 49.5 | 82.7 | 107 | 90.3 | 85.8 | 90.2 | 76.4 | 79.7 | 64.6 | 95.5 |
| Cn1nnc2c(C(N)=O)ncn2c1=O [temozolomide] + O=C(O)c1ccc(-c2c[nH]c3ncc(-c4ccccc4)cc23)cc1C1CCCC1 [GSK650394] (first compound 10 µM, partner dose 0.8 µM) | 64.2 | 85.9 | 56.2 | 80.3 | 75 | 73 | 82 | 88.2 | 114 | 74.2 | 31.2 | 74.2 | 61.8 | 77.7 | 73.5 | 54.4 | 70.2 | 68.8 | 67.5 | 76.7 |
| O=C(Nc1cc(C(F)(F)F)cc(C(F)(F)F)c1)c1cc(Cl)ccc1O + CCCCCCCCc1ccc(CCC(N)(CO)CO)cc1 [fingolimod] (first compound 0.08 µM, partner dose 10 µM) | 1.63 | 27 | 16.3 | 0.425 | 18.5 | 17.8 | 0.333 | 44.7 | 0.981 | 32.5 | 0.854 | 0.216 | 11.3 | 81.2 | 91 | 31 | 17.4 | 65.2 | 3.68 | 61.4 |
| O=C(Nc1cc(C(F)(F)F)cc(C(F)(F)F)c1)c1cc(Cl)ccc1O + CC(C)(C)c1cnc(CSc2cnc(NC(=O)C3CCNCC3)s2)o1 [SNS-032] (first compound 0.08 µM, partner dose 0.05 µM) | 105 | 113 | 90.3 | 85.5 | 118 | 94.1 | 96 | 108 | 41.5 | 94.6 | 95 | 86.4 | 123 | 102 | 97.7 | 86.5 | 72.3 | 85.5 | 84.6 | 128 |
| O=C(Nc1cc(C(F)(F)F)cc(C(F)(F)F)c1)c1cc(Cl)ccc1O + Cc1cn(-c2cc(NC(=O)c3ccc(C)c(Nc4nccc(-c5cccnc5)n4)c3)cc(C(F)(F)F)c2)cn1 [nilotinib] (first compound 0.08 µM, partner dose 1 µM) | 99.7 | 97.6 | 94.7 | 97.5 | 169 | 80.5 | 99 | 76.9 | 104 | 88.5 | 71.7 | 90.6 | 85.6 | 74.9 | 116 | 73.6 | 98.5 | 106 | 71.9 | 77.9 |
| Cc1cc(N2CCOCC2)cc2[nH]c(-c3c(NC[C@@H](O)c4cccc(Cl)c4)cc[nH]c3=O)nc12 + COc1ccc(COc2ccc(Cc3cnc(N)nc3N)cc2OC)cc1 [GW2580] (first compound 1 µM, partner dose 5 µM) | 81.9 | 93.6 | 86.3 | 101 | 98.2 | 91.6 | 39.8 | 63.5 | 96 | 99 | 102 | 91.3 | 82.3 | 63 | 77.5 | 103 | 96.8 | 136 | 61.8 | 76.3 |
| O=C(Nc1cc(C(F)(F)F)cc(C(F)(F)F)c1)c1cc(Cl)ccc1O + Cc1ccc(Nc2nccc(N(C)c3ccc4c(C)n(C)nc4c3)n2)cc1S(N)(=O)=O [Pazopanib] (first compound 0.08 µM, partner dose 2 µM) | 83.2 | 73.1 | 83.7 | 90.5 | 140 | 85.8 | 78.5 | 87.6 | 86.1 | 72.4 | 99.9 | 136 | 89.9 | 81.6 | 75.5 | 86.4 | 82.6 | 104 | 79.8 | 75 |
| Cn1nnc2c(C(N)=O)ncn2c1=O [temozolomide] + O=C1NC(=O)/C(=C/c2ccc(-c3ccc(F)cc3O)o2)S1 [AS252424] (first compound 10 µM, partner dose 5 µM) | 90.3 | 78 | 76.2 | 94.7 | 86.3 | 86.6 | 63.8 | 93.5 | 89.8 | 87.7 | 35.1 | 92.7 | 73.2 | 87.5 | 107 | 63.6 | 83.4 | 51.3 | 87.9 | 82.6 |
| O=C(O)[C@@H]1[O][Sb](=[O])([O][Sb]2(=[O])[O][C@H]([C@H](O)CO)[C@H](O)[C@H](C(=O)O)[O]2)[O][C@H]([C@H](O)CO)[C@@H]1O (stereo not given in full) [stibogluconate] + CN(NC(=O)CC(=O)NN(C)C(=S)c1ccccc1)C(=S)c1ccccc1 [STA4783] (first compound 10 µM, partner dose 0.03 µM) | 34.4 | 85.2 | 33.2 | 30 | 58.8 | 93.4 | 120 | 14.8 | 120 | 53.8 | 52 | 71.5 | 93.3 | 43.8 | 94.4 | 32.9 | 26.5 | 101 | 27.3 | 80.5 |
| Cn1nnc2c(C(N)=O)ncn2c1=O [temozolomide] + O=C(CCCCCCC(=O)Nc1ccccc1)NO [vorinostat] (first compound 10 µM, partner dose 0.4 µM) | 81.1 | 80.8 | 79.8 | 83.6 | 92.1 | 101 | 92.1 | 81.1 | 95.6 | 78.6 | 48.8 | 81.3 | 65.1 | 90.9 | 58 | 57.3 | 74.2 | 55.9 | 90 | 77.3 |
| O=C(Nc1cc(C(F)(F)F)cc(C(F)(F)F)c1)c1cc(Cl)ccc1O + C=C(c1ccc(C(=O)O)cc1)c1cc2c(cc1C)C(C)(C)CCC2(C)C [Bexarotene] (first compound 0.08 µM, partner dose 10 µM) | 69.8 | 71.3 | 83.7 | 83.5 | 91 | 74.9 | 59.7 | 76 | 67.8 | 92.4 | 66.5 | 85.3 | 102 | 79.1 | 86.1 | 87.8 | 85.3 | 87.7 | 66.5 | 84.1 |
| Cn1nnc2c(C(N)=O)ncn2c1=O [temozolomide] + CN(NC(=O)CC(=O)NN(C)C(=S)c1ccccc1)C(=S)c1ccccc1 [STA4783] (first compound 10 µM, partner dose 0.03 µM) | 36.1 | 57.2 | 33.6 | 26.8 | 56.9 | 86.8 | 84.1 | 22.6 | 94.3 | 73.7 | 28.4 | 69.6 | 59.7 | 62.2 | 110 | 46.2 | 23.9 | 56.6 | 13.7 | 105 |
| Cc1cc(N2CCOCC2)cc2[nH]c(-c3c(NC[C@@H](O)c4cccc(Cl)c4)cc[nH]c3=O)nc12 + O=C(Nc1cccc(Cl)c1)Nc1ncc(CCNc2ncnc3ccsc23)s1 [SNS314] (first compound 1 µM, partner dose 0.004 µM) | 67.7 | 63.6 | 58.2 | 71.2 | 41.2 | 68.1 | 80 | 62.3 | 45.3 | 74.8 | 49.4 | 62.7 | 80.5 | 65.7 | 56.8 | 93.9 | 46.3 | 64.8 | 45.8 | 69.7 |

— the supplement of paper PMC4604168 (melanoma cell lines)
